The whole screen tested about 48,000 compounds, of which about 1,200 (2.5%) were called active. About 2% were inconclusive and are not listed.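 How the source made its calls: active means activation of at least 60% and not above a set upper limit (about 1 call in 100 departs from these limits); inconclusive means activation of 40% to 60%, or above that upper limit; inactive means activation under 40%.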 This is one part of the list.
These molecules were tested against Probable G-protein coupled receptor 32 (Homo sapiens) (UniProt O75388) (assay: qHTS for Agonists of Human Resolvin D1 Receptor DRV1). Conditions: CHO-K1 GPR32 beta-arrestin PathHunter luminescence, 90 min; at 76.9 µM; active compounds read high; zero percent set by DMSO-only wells.
Method in brief: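 GPR32 activation in stably transfected CHO-K1 cells, detected as beta-arrestin recruitment by enzyme-fragment complementation. Compound exposure: 90 min, 37 °C.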
Further: 0% is about no effect.

Chain of UniProt O75388 (O75388 whole entry, looked up, the tested form may be a part): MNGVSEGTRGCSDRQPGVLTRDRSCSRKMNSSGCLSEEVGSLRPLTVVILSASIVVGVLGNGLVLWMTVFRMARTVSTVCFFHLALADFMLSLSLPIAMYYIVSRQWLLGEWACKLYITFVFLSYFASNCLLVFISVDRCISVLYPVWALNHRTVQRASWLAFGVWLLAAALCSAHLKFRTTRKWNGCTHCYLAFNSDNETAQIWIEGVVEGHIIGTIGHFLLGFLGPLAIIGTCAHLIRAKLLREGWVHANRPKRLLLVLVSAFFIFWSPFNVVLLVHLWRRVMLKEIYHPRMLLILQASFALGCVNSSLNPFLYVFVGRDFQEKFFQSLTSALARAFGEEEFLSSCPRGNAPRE

activation, inactive:
COCCNC(=O)c1ccc(-n2c(-c3ccccc3)cc3c2CCCCC3)cc1 -14.3%
COc1ccc(NC(=O)CCCc2nnc3n(CCC(C)C)c(=O)c4sccc4n23)c(OC)c1 -1.33%
COc1ccc(-c2csc3nc(-c4ccc(F)cc4)oc(=O)c23)cc1 -18.4%
Cc1ccc2oc(=O)c3cnn(CC(=O)N4CCN(c5cc(Cl)ccc5C)CC4)c3c2c1 -5.82%
COc1ccc(CCNC(=O)Cn2c(=O)n(-c3cc(OC)c(OC)c(OC)c3)c(=O)c3ccccc32)cc1OC -7.71%
COc1cccc(CNc2nc3c(-c4ccccc4)nnn3c3ccccc23)c1 8.33%
CCOc1ccc(NC(=O)c2cc(S(=O)(=O)N3CCCCC3)c[nH]2)cc1 10.8%
CN1C(C(=O)Nc2ccccn2)=C(O)c2sccc2S1(=O)=O -50.3%
CC(CSC(=O)c1ccccc1)C(=O)N1C[C@@H](Sc2ccccc2)C[C@H]1C(=O)O (some centres not stated) -39.7%
CN(Cc1ccccc1)C(=O)CSc1nc2ccsc2c(=O)n1-c1ccc(F)cc1 -22.7%
CCOc1ccc(CCNCc2c(C(=O)O)n(Cc3ccc(C)cc3)c3cc(OC)ccc23)cc1 6.5%
COc1cccc(NS(=O)(=O)c2ccc3[nH]cc(C(=O)NCCc4ccccc4)c(=O)c3c2)c1 11.6%
COc1cccc(N2C(=O)N(Cc3ccc(C#N)cc3)c3ccccc3S2(=O)=O)c1 -0.327%
COc1ccc(NC(=O)CCc2nnc3n(C)c(=O)c4sccc4n23)cc1Cl 12.8%
CCn1cc(C(=O)NCCCN(CC(C)C)CC(C)C)c(=O)c2cc(S(=O)(=O)N(C)C3CCCCC3)ccc21 -30.5%
O=S(=O)(c1ccccc1F)N1CCC(Oc2ccc(-n3cnnn3)cc2)CC1 18.3%
CCc1ccccc1NC(=O)Cn1c(=O)n(CC2CCC(C(=O)NCCc3ccccc3)CC2)c(=O)c2ccccc21 (configuration not stated) -6.85%
O=C(NCc1ccccc1Cl)c1cnc2sc(N3CCOCC3)nn2c1=O -6.09%
CCC(=O)N1CCc2cc(Br)cc(S(=O)(=O)CCC(=O)Nc3ccc(C)c(C)c3)c21 -11.5%
COc1ccc(-c2noc(-c3ccc(NCc4cccnc4)c([N+](=O)[O-])c3)n2)cc1 1.75%
O=C(COCc1cc(-c2cccs2)on1)Nc1cccc(Cl)c1Cl -12.5%
Cc1c(Cl)cccc1Nc1nn2c(=O)c3ccc(C(=O)NCCc4ccccc4)cc3nc2s1 3.6%
CCN(c1cccc(C)c1)S(=O)(=O)c1ccc2c(c1)NC(=O)CCS2 -2.43%
COc1ccc(NC(=O)CN2C(=O)COc3ccc(S(=O)(=O)Nc4ccccc4)cc32)cc1OC -17.2%
CCOc1ccc(NC(=O)c2cc3c(n(-c4ccc(OC)cc4)c2=O)CC(C)(C)CC3=O)cc1 -5.87%
CC(=O)c1cccc(NC(=O)c2cccn2-c2nnc(N3CCCCC3)s2)c1 -3.6%
COc1ccccc1Cn1c(CNS(=O)(=O)c2ccccc2Cl)nc2cccnc21 -28.6%
CCN(CC)CCOC(=O)C1(c2ccccc2)CCCC1 0.25%
COc1cccc(CNC(=O)C2CCN(c3nn4c(=O)cc(C)nc4s3)CC2)c1 14%
O=C(NC1CC(=O)N(c2ccccc2)C1)c1ccc(Br)o1 (configuration not stated) -3.49%
O=C(NCCCN1CCN(c2cccc(Cl)c2)CC1)Nc1ccccc1C(F)(F)F 10.5%
CCOC(=O)Cn1c(=O)oc2cc(S(=O)(=O)N3CCN(c4ccccc4F)CC3)ccc21 1.04%
CCN(CC)C(=O)Cn1cc(SCC(=O)Nc2ccccc2F)c2ccccc21 -13.8%
COc1ccc(NC(=O)c2nnn(Cc3nc(-c4cc(OC)c(OC)c(OC)c4)oc3C)c2C)cc1 3.08%
CCOC(=O)c1ccc2c(c1)N(CC(=O)Nc1ccc(C)cc1C)C(=O)c1ccccc1S2 -3.45%
COc1ccc(-c2nc(C(N)=O)c3c(n2)n(-c2ccccc2OC)c(=O)n3C)c(OC)c1 -6.38%
O=C(c1ccc2c(c1)N(Cc1ccc(Cl)cc1)C(=O)c1ccccc1S2=O)N1CCN(c2ccccc2F)CC1 (configuration not stated) 27.4%
CCOc1ccccc1NC(=O)C(NS(=O)(=O)c1ccc2c(c1)CCC(=O)N2)c1ccccc1 (configuration not stated) -10.3%
O=C(NC1CCCCCC1)c1cc2c(Cl)nc3ccccc3c2s1 -0.412%
CC(C)NC(=O)CC(=O)Nc1ccc2nc3n(c(=O)c2c1)CCCCC3 9.95%
N=C(N)N -8.89%
O=C(c1ccc(F)cc1)N1CCC(c2nc3ccccc3o2)CC1 4.12%
CSc1cccc(NC(=O)C2CCN(c3ncnc4c3nc3n4CCCCC3)CC2)c1 -12%
O=C(CCC(=O)N1CC2CCCN2c2ccccc21)NCc1ccccc1 (configuration not stated) -28.3%
COc1ccc(CNC(=O)c2ccc3c(c2)N(C)C(=O)C2CCCCN32)cc1OC (configuration not stated) 13.7%
CC(C)(C)c1ccc(Oc2nc3ccccn3c(=O)c2/C=C(\C#N)c2nc3ccccc3[nH]2)cc1 7.97%
CCOc1ccc(CC(=O)NCCc2csc(-c3ccc(C(F)(F)F)cc3)n2)cc1 3.37%
Cc1nn(C(=O)COc2ccccc2)c(C)c1Sc1ccccc1 -13.6%
CCOC(=O)c1ccc(NC(=O)C2=C(C)Nc3nc(SCc4ccc(Cl)cc4)nn3C2c2ccc(C)cc2)cc1 (configuration not stated) 12.1%
CCCCOc1ccc(C(=O)N2CCC(c3nc4ccccc4o3)CC2)cc1 -11.1%
CCc1ccccc1NC(=O)Cn1nnc(-c2nc(-c3ccc(C)cc3)no2)c1N -4.62%
Cc1ccc2c(c1)sc1nc(-c3cc4ccccc4oc3=O)cn12 -3.58%
CCOC(=O)c1ccccc1NC(=O)CN1C(=O)CC(c2ccco2)Sc2ccccc21 (configuration not stated) 41.9%
Cc1ccc(C(=O)Nc2ccc(C(=O)OCc3cc(=O)n4nc(C5CC5)sc4n3)cc2)cc1 1.01%
Cc1oc(-c2ccc(Cl)cc2)nc1Cn1c(=O)cc(C)c2c(C)nn(-c3cccc(F)c3)c21 -5%
COc1ccc(NC(=O)C(=O)NCC(c2ccc3c(c2)OCO3)N2CCN(C)CC2)cc1 (configuration not stated) -6.7%
COc1ccc(N2CCN(c3c4c(nc5nncn35)CCC4)CC2)cc1 25.3%
CCn1cc(C(=O)N2CCN(c3ccc(F)cc3)CC2)c(=O)c2cc(S(=O)(=O)N3CCOCC3)ccc21 -1.99%
COc1ccc(CCNC(=O)c2cc(Nc3cc(C)cc(C)c3)nc3ccccc23)cc1OC -5.33%
CCc1ccccc1NC(=O)CSc1ncc(S(=O)(=O)c2ccccc2)c(N)n1 4.43%
CCOc1cc(CNC(=O)CCCn2c(=O)c3cccn3c3cccnc32)cc(OCC)c1OCC -15.1%
CC(=O)Nc1cccc(NC(=O)CSc2cn(CC(=O)N(C(C)C)C(C)C)c3ccccc23)c1 -16.5%
CC(=O)c1ccc(NS(=O)(=O)c2cc3[nH]c(=O)c(=O)[nH]c3cc2C)cc1 -7.51%
C/C=C/C(=O)N(CC)c1ccccc1C 0.921%
COc1ccc(S(=O)(=O)NCCc2nnc3ccc(SCC(=O)Nc4ccc(C(F)(F)F)cc4)nn23)cc1 -19.1%
Cc1ccc(C)c(N2CCN(C(=O)Cn3ncc4c(=O)oc5ccc(C)cc5c43)CC2)c1 -7.12%
Cc1ccccc1Cn1nc(C)c(NC(=O)c2cc(-c3ccc(F)cc3)on2)c1C 6.09%
CCOc1ccccc1CNc1ncnc2c1nc1n2CCCC1 -8.06%
CSc1ccc(CCNC(=O)CCc2c(C)nc3c(-c4ccccc4)c(C)nn3c2C)cc1 -5.29%
CCc1ccc(CSc2nc(-c3ccccc3OC)nc3c2Cc2c(CO)cnc(C)c2O3)cc1 6.63%
CCCn1c(=N)c(C(=O)NCc2cccnc2)cc2c(=O)n3cc(C)ccc3nc21 0.667%
O=C(c1cnc2cc(-c3ccccc3)nn2c1)c1cc([N+](=O)[O-])ccc1O 31.2%
COc1cccc(/C=C/c2nc(C#N)c(N3CCCCC3)o2)c1 -22.3%
O=C(CN1CCSc2ccccc21)N1CCN(c2ccccc2)CC1 -11.1%
CCOC(=O)c1c(NC(=O)/C=C/c2ccc(OC)c(OC)c2)sc(C(C)=O)c1C -4.08%
CCn1cc(C2N3CC4(CC)CN2CC(CC)(C3)C4=O)c2ccccc21 (configuration not stated) -21.9%
CNC(=O)[C@H]1O[C@@H](n2cnc3c(NCc4cccc(I)c4)ncnc32)[C@H](O)[C@@H]1O -4.12%
CCc1ccc(NC(=O)c2cc(-c3cccs3)on2)cc1 -10.5%
COC(=O)c1ccc2c(=O)n(CCCCCC(=O)NCc3ccccc3)c(=O)[nH]c2c1 -6.43%
Cc1cccc(-n2c3c(cc(-c4nc(-c5ccc(Cl)cc5)cs4)c2=O)C(=O)CC(C)(C)C3)c1 -1.93%
COc1ccccc1CNC(=O)C1CCCN(c2nn3cc(-c4ccc(F)cc4)nc3s2)C1 (configuration not stated) -3.33%
CCOC(=O)c1cnc2cc(C(F)(F)F)ccc2c1N1CCN(c2ccc(F)cc2)CC1 -12%
